The test system of one test is HSkMC. Nature of the test: cytotoxicity call (relative viability < 0.9). The conditions noted are these: 10 µM.
For another test, the system named is HepG2. The test is described as follows: cytotoxicity call (relative viability < 0.9). The conditions noted are these: 10 µM.
Another test has as its system S. aureus RN4220. Nature of the test: growth inhibition call (relative growth <= 0.2). The conditions noted are these: 50 µM.

The structures appear in SMILES notation. Some of the results follow.

Cytotoxicity call and growth inhibition call data for 30 compounds are collected here from the antibiotic and cytotoxicity screens of Wong et al. (2023).

On to `Cc1cn(CCC(=O)O)c(=O)[nH]c1=O`, for which the cytotoxicity call in the test with HSkMC and in the test on HepG2 was “inactive” each time. Also, the growth inhibition call in the test with S. aureus RN4220 was “inactive”.
For `CCCN1C[C@@H](C)[C@@H](OC)CN(C)C(=O)c2ccc(NS(=O)(=O)c3cn(C)cn3)cc2OC[C@@H]1C`, the cytotoxicity call in the test on HSkMC and in the test on HepG2 was “inactive” each time. The growth inhibition call with S. aureus RN4220 is “inactive”.
Consider `Cc1cc(C(C)(C)C)cc(C)c1CC1=NCCN1.Cl`, for which the cytotoxicity call with HSkMC and in the test on HepG2 was “inactive” in each case. In addition, the growth inhibition call in the test with S. aureus RN4220 was “inactive”.
As to `C[C@H](CO)N1C[C@H](C)[C@@H](CN(C)C(=O)Nc2ccccc2)Oc2ccc(NC(=O)CCN3CCOCC3)cc2C1=O`, the cytotoxicity call in the test on HSkMC and in the test with HepG2 was “inactive” in each case. Moreover, the growth inhibition call with S. aureus RN4220 was “inactive”.
In the case of `COc1ccc(-c2ccc3c(c2)O[C@@H](CN(C)CC2CCOCC2)[C@H](C)CN([C@H](C)CO)S3(=O)=O)cc1`, the cytotoxicity call in the test on HSkMC and in the test on HepG2 was “inactive” throughout. The growth inhibition call with S. aureus RN4220 was “inactive”.
As to `C[C@H](CO)N1C[C@H](C)[C@H](CN(C)C(=O)Cc2ccncc2)Oc2cc(C#CC3CCCCC3)ccc2S1(=O)=O`, the cytotoxicity call with HSkMC and in the test on HepG2 was “inactive” throughout. Moreover, in the test with S. aureus RN4220, the growth inhibition call was “inactive”.
For `O=C(CCCCCCC(=O)N/N=C/[C@H](O)[C@@H](O)[C@@H](O)[C@H](O)CO)NO`, the cytotoxicity call in the test with HSkMC and in the test on HepG2 was “inactive” in each case. In addition, in the test on S. aureus RN4220, the growth inhibition call is “inactive”.
Consider `COc1cccc(S(=O)(=O)Nc2ccc3c(c2)[C@@H]2C[C@H](CC(=O)NCc4cccc(F)c4)O[C@H](CO)[C@@H]2O3)c1`, for which the cytotoxicity call in the test with HSkMC and with HepG2 was “inactive” each time. Besides, the growth inhibition call in the test on S. aureus RN4220 is “inactive”.
Take `Cn1c(=O)c2c(ncn2CC(=O)O)n(C)c1=O`: the cytotoxicity call in the test on HSkMC and in the test on HepG2 was “inactive” throughout. Also, in the test on S. aureus RN4220, the growth inhibition call was “inactive”.
`CCS(=O)(=O)N1CC[C@]2(CC1)CN([C@H](CO)c1[nH]c3cc(ccc3c12)OC)S(=O)(=O)c1cccc(c1)OC`: the cytotoxicity call in the test on HSkMC and in the test on HepG2 was “inactive” throughout. Besides, the growth inhibition call in the test with S. aureus RN4220 is “inactive”.
Consider `C[C@@H]1CN([C@H](C)CO)C(=O)CCCn2nncc2CO[C@H]1CN(C)C(=O)Nc1cccc(Oc2ccccn2)c1`, for which the cytotoxicity call in the test with HSkMC and in the test on HepG2 was “inactive” each time. Also, the growth inhibition call in the test on S. aureus RN4220 is “inactive”.
For `Cc1cccc(C(=O)NN)c1`, the cytotoxicity call in the test on HSkMC and in the test with HepG2 was “inactive” each time. Moreover, the growth inhibition call in the test with S. aureus RN4220 is “inactive”.
For `COc1ccc(NC(=O)Nc2ccc3c(c2)CC(=O)N([C@@H](C)CO)C[C@@H](C)[C@@H](CN(C)Cc2ccc(-c4ccccc4)cc2)O3)cc1`, the cytotoxicity call in the test with HSkMC was “inactive”. The cytotoxicity call with HepG2 was “active”. Also, in the test with S. aureus RN4220, the growth inhibition call is “inactive”.
For the compound `CN(c1cccc(C(N)=O)c1)S(C)(=O)=O`, the cytotoxicity call in the test with HSkMC and in the test on HepG2 was “inactive” in each case. Besides, the growth inhibition call in the test with S. aureus RN4220 is “inactive”.
As for `O=C(NCc1ccc2c(c1)OCO2)[C@H]1[C@H](CO)[C@H]2Cn3c(cccc3=O)[C@@H]1N2Cc1cncnc1`, the cytotoxicity call with HSkMC and in the test on HepG2 was “inactive” each time. The growth inhibition call in the test on S. aureus RN4220 is “inactive”.
Consider `CC(=N)NCCC[C@H](N)C(=O)O`, for which the cytotoxicity call with HSkMC and in the test on HepG2 was “inactive” throughout. Besides, the growth inhibition call in the test with S. aureus RN4220 is “inactive”.
As for `C[C@H]1CN([C@@H](C)CO)C(=O)c2cc(NC(=O)Nc3cccc4ccccc34)ccc2O[C@@H]1CN(C)Cc1ccncc1`, the cytotoxicity call with HSkMC and in the test on HepG2 was “inactive” each time. Also, in the test on S. aureus RN4220, the growth inhibition call was “inactive”.
With `CC(=O)N1[C@H](CO)[C@@H](c2ccccc2)C12CN(C(=O)CN1CCOCC1)C2`, the cytotoxicity call with HSkMC and in the test on HepG2 was “inactive” in each case. In addition, the growth inhibition call with S. aureus RN4220 was “inactive”.
On to `O=C(C[C@H]1CC[C@H](NC(=O)Cc2ccccn2)[C@@H](CO)O1)NCCc1ccncc1`, for which the cytotoxicity call in the test with HSkMC and in the test with HepG2 was “inactive” in each case. The growth inhibition call with S. aureus RN4220 is “inactive”.
`O=C(c1ccccc1Cl)c1cccnc1-c1nnn(Cc2cc(C(F)(F)F)cc(C(F)(F)F)c2)c1-c1ccncc1`: in the test on HSkMC, the cytotoxicity call was “active”. Also, the cytotoxicity call with HepG2 is “inactive”. In the test with S. aureus RN4220, the growth inhibition call was “inactive”.
Consider `O=C(C[C@H]1C[C@H]2c3cc(NS(=O)(=O)c4ccc(F)cc4)ccc3O[C@H]2[C@@H](CO)O1)NCCc1ccccc1`, for which the cytotoxicity call with HSkMC and in the test on HepG2 was “inactive” throughout. In addition, in the test on S. aureus RN4220, the growth inhibition call was “inactive”.
Turning to `Cc1noc(C)c1NC(=O)Nc1ccc2c(c1)C(=O)N([C@@H](C)CO)C[C@@H](C)[C@H](CN(C)Cc1ccc3c(c1)OCO3)OCCCC[C@@H](C)O2`, the cytotoxicity call in the test with HSkMC and in the test on HepG2 was “inactive” each time. The growth inhibition call in the test with S. aureus RN4220 was “inactive”.
Regarding `C[C@@H]1CN([C@H](C)CO)S(=O)(=O)c2ccc(C#Cc3ccccc3F)cc2O[C@H]1CN(C)CC1CCOCC1`, the cytotoxicity call with HSkMC and in the test with HepG2 was “inactive” each time. Also, the growth inhibition call with S. aureus RN4220 is “inactive”.
`COc1cccc(S(=O)(=O)N(C)C[C@H]2Oc3cc(C#CCC(C)C)ccc3S(=O)(=O)N([C@@H](C)CO)C[C@@H]2C)c1`: the cytotoxicity call with HSkMC and in the test with HepG2 was “inactive” in each case. Besides, the growth inhibition call in the test with S. aureus RN4220 is “inactive”.
Regarding `C[C@@H]1CN([C@H](C)CO)C(=O)Cc2cc(NC(=O)CCCCCC(=O)Nc3ccccc3N)ccc2O[C@@H]1CN(C)Cc1ccc(-c2ccccc2)cc1`, the cytotoxicity call in the test on HSkMC and with HepG2 was “active” in each case. Also, the growth inhibition call in the test with S. aureus RN4220 is “inactive”.
Take `CN1C(=O)c2cc(NC(=O)C3CCC3)ccc2OC[C@H]2O[C@@H](CC(=O)NCCc3ccncc3)CC[C@H]21`: the cytotoxicity call in the test with HSkMC and in the test with HepG2 was “inactive” in each case. Besides, the growth inhibition call in the test with S. aureus RN4220 was “inactive”.
As to `C[C@H]1CN([C@@H](C)CO)C(=O)c2cc(-c3cccc(C(=O)N(C)C)c3)cnc2O[C@@H]1CN(C)S(=O)(=O)c1ccccc1`, the cytotoxicity call in the test with HSkMC and with HepG2 was “inactive” each time. In the test on S. aureus RN4220, the growth inhibition call is “inactive”.
Take `C[C@@H](O)/C=C\c1cc[n+](C)cc1`: the cytotoxicity call in the test with HSkMC and with HepG2 was “inactive” in each case. The growth inhibition call in the test on S. aureus RN4220 is “inactive”.
For the compound `CCNC(=O)N1CCC(O)CC1`, the cytotoxicity call in the test on HSkMC and in the test on HepG2 was “inactive” in each case. For the same compound, the growth inhibition call in the test with S. aureus RN4220 was “inactive”.
As to `C[C@@H]1CN([C@@H](C)CO)S(=O)(=O)c2ccc(C#Cc3cccnc3)cc2O[C@H]1CN(C)C(=O)CN(C)C`, the cytotoxicity call in the test on HSkMC (human skeletal muscle cells) and in the test with HepG2 was “inactive” in each case. Also, the growth inhibition call in the test on S. aureus RN4220 is “inactive”.
